{
  "source": "PubChem BioAssay AID686979",
  "about": "(National Center for Advancing Translational Sciences (NCATS), 2013)",
  "note": "Where “and” joins values, the source holds several entries; their conditions need not be identical. Equal values may be shown once. The whole screen tested about 420,000 compounds, of which about 50,000 (12%) were called active. Inconclusive means that the source gave no clear call. Such entries were picked first, then a sample of the others. Calls follow the shape of the dose curve; as a rule, active = well fitted inhibition curve with a large enough effect; inconclusive = small, poorly fitted or top-dose-only effect; inactive = flat fitted curve, though single readings scatter. Potencies beside an inconclusive call are fits to weak or partial responses and may not hold up. Potency is read from the fitted curve at half-maximal effect; tags tell the direction and shape of the fitted curve.",
  "data": [
    {"experiment": "qHTS for Inhibitors of human tyrosyl-DNA phosphodiesterase 1 (TDP1): qHTS in cells in presence of CPT; also: nearly all actives have a fitted effect of over 55% in size", "conditions": "chicken DT40 Tdp1-/-;hTDP1 cells + 20 nM CPT, ATP luminescence, 48 h; series mostly up to 46.2 µM", "outline": "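Chicken DT40 Tdp1-/- cells stably complemented with human TDP1 were seeded at 400 cells/well in medium containing 20 nM camptothecin, exposed to pin-transferred compounds, and grown at 37 °C for at least 48 hr. Viability was read as ATP luminescence.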", "values": [
      {"smiles": "O=C(Nc1cccc(C(F)(F)F)c1)Nc1ccc2snnc2c1", "Potency": "active: 3.66 µM"},
      {"smiles": "CC(=O)N1CCCc2cc(S(=O)(=O)N3CCCC3)ccc21", "Potency": "inactive"},
      {"smiles": "CC(=O)Oc1ccc(C(=O)Cc2ccccn2)c(O)c1", "Potency": "inactive"},
      {"smiles": "COc1cccc(C2=NOC(C(=O)N3CCN(Cc4ccccc4)CC3)C2)c1OC", "note": "(configuration not stated)", "Potency": "inconclusive: 1.3 µM [inhibitor, full curve, poor fit]"},
      {"smiles": "Cc1cccc(OCC(=O)Nc2ccc(C(=O)c3ccc(C(=O)O)cc3)cc2)c1", "Potency": "inactive"},
      {"smiles": "CCN(CC)C(=O)CSc1nc2cc3c(cc2c(=O)n1CCCC(=O)NCc1ccc(OC)cc1)OCO3", "Potency": "inactive and inconclusive: 29.1 µM [inhibitor, single point]"},
      {"smiles": "Cc1cc(C)c(N2C(=NC(=O)CCCC(=O)O)SC3CS(=O)(=O)CC32)c(C)c1", "note": "(configuration not stated)", "Potency": "inconclusive: 20.6 µM [inhibitor, single point]"},
      {"smiles": "Cc1ccc(CCNC(=O)CN(c2ccc(C(C)C)cc2)S(=O)(=O)c2c(C)nn(C)c2C)cc1", "Potency": "inconclusive: 16.4 µM [inhibitor, single point]"},
      {"smiles": "COc1ccc2ccccc2c1/C=N/NC(=O)c1ccc(C)nc1", "Potency": "inactive"},
      {"smiles": "Cc1ccc(-c2nc3c4ccccc4ccn3c2Cc2cccc(Cl)c2)cc1", "Potency": "inconclusive: 29.1 µM [inhibitor, single point]"},
      {"smiles": "CN(C)c1ccc(C(CNS(=O)(=O)c2ccc(F)cc2F)N2CCOCC2)cc1", "note": "(configuration not stated)", "Potency": "inactive"},
      {"smiles": "Oc1ccccc1C1CC(c2cccs2)=NC(c2cccc(Br)c2)N1", "note": "(configuration not stated)", "Potency": "active: 14.6 µM"},
      {"smiles": "CCc1ccc(CN(Cc2cn[nH]c2-c2ccc(OC)cc2)C(=O)Nc2ccc(Br)cc2)cc1", "Potency": "active: 23.1 µM"},
      {"smiles": "CN=C1S/C(=C\\c2ccc(O)c(OC)c2)C(=O)N1C", "Potency": "inactive"},
      {"smiles": "Nc1c(C(=O)c2ccccc2)sc2nsc(SCCN3CCCC3)c12", "Potency": "inconclusive: 29.1 µM [inhibitor, single point]"},
      {"smiles": "COc1ccc(C2(c3ccc(OC)cc3)NC(=O)N(CC(=O)Nc3ccc(C(=O)N(C)C)cc3)C2=O)cc1", "Potency": "inactive"},
      {"smiles": "CC(C)[C@H](N)c1cn([C@@H](CO)C(=O)N2CCNCC2)nn1", "Potency": "inconclusive: 2.31 µM [inhibitor, partial curve]"},
      {"smiles": "O=C(NCCC1=CCCCC1)c1ccc2c(c1)N(Cc1ccccc1)C(=O)c1ccccc1S2=O", "note": "(configuration not stated)", "Potency": "inconclusive: 18.4 µM [inhibitor, single point]"},
      {"smiles": "COc1ccc(OCCNS(=O)(=O)c2ccc3oc4ccccc4c3c2)cc1", "Potency": "inconclusive: 16.4 µM [inhibitor, single point]"},
      {"smiles": "CCn1cc(-c2cc(C(=O)O)c3ccccc3n2)c(C)n1", "Potency": "inactive"},
      {"smiles": "O=C(NCCCn1ccnc1)c1sc2cc([N+](=O)[O-])ccc2c1Cl", "Potency": "active: 13 µM"},
      {"smiles": "Cc1ccccc1NC(=O)c1c(C)nc(SCC(=O)OCc2ccccc2)c(C#N)c1-c1ccc(F)cc1", "Potency": "inconclusive: 29.1 µM [inhibitor, single point]"},
      {"smiles": "Cc1ccc(S(=O)(=O)N2C(c3ccccc3)CC(=O)C3CN(S(=O)(=O)c4ccc(Cl)cc4)C(c4ccccc4)CC32)cc1", "note": "(configuration not stated)", "Potency": "inconclusive: 2.59 µM [inhibitor, partial curve, poor fit]"},
      {"smiles": "Cc1cc(C)n(S(=O)(=O)c2cccc([N+](=O)[O-])c2)n1", "Potency": "inactive"},
      {"smiles": "O=C1NC2(CCN(Cc3ccccc3)CC2)Oc2ccccc21", "Potency": "inactive"},
      {"smiles": "COC(=O)c1ccc2c(c1)S(=O)(=O)NC2C", "note": "(configuration not stated)", "Potency": "inactive"},
      {"smiles": "NC(c1csc(Nc2cnccn2)n1)c1ccccc1Cl", "note": "(configuration not stated)", "Potency": "inconclusive: 23.1 µM [inhibitor, single point]"},
      {"smiles": "COc1ccc2c(Cl)c(-c3nnc(SCC(N)=O)n3C)sc2c1", "Potency": "inconclusive: 16.4 µM [inhibitor, single point]"},
      {"smiles": "CN(CCc1ccccc1)C(C(=O)Nc1ccc2c(c1)OCCO2)C1CC1", "note": "(configuration not stated)", "Potency": "inconclusive: 29.1 µM [inhibitor, single point]"},
      {"smiles": "CC(C)SCc1nc2ccccc2[nH]1", "Potency": "inactive"},
      {"smiles": "CC(C)(C)c1cc[n+](-c2[nH]c(=O)sc2/C=N/N=C(\\[O-])c2ccccc2)cc1", "Potency": "inactive"},
      {"smiles": "O=C(CCC1CCCN(C(=O)CCCc2ccccc2)C1)N1CCN(c2ccccn2)CC1", "note": "(configuration not stated)", "Potency": "active: 20.6 µM"},
      {"smiles": "c1ccc2c(c1)nc(Nc1ccc3c(c1)OCO3)c1nnnn12", "Potency": "inconclusive: 18.4 µM [inhibitor, single point]"},
      {"smiles": "O=[N+]([O-])CC(=Nc1ccc(Cl)cc1)N/N=C\\c1oc(O)c2ccccc12", "Potency": "inconclusive: 18.4 µM [inhibitor, single point]"},
      {"smiles": "Cc1nnc(NC(=O)Nc2cccc(Cl)c2)s1", "Potency": "inconclusive: 29.1 µM [inhibitor, single point]"},
      {"smiles": "CC/C(=N\\NC(=S)Nc1cc(C)ccc1C)c1ccc(OC(F)F)cc1", "Potency": "inconclusive: 20.6 µM [inhibitor, single point]"},
      {"smiles": "COc1ccccc1N1CCN(C(=O)c2ccc(-c3ccccc3)cc2)CC1", "Potency": "inconclusive: 29.1 µM [inhibitor, single point]"},
      {"smiles": "CC(C)OCCCNC(=O)CN1CCN(Cc2ccccc2Cl)C1=O", "Potency": "inconclusive: 29.1 µM [inhibitor, single point]"},
      {"smiles": "O=C(NC(=S)Nc1c(Cl)ccc2nsnc12)c1ccco1", "Potency": "inactive"},
      {"smiles": "CCOC(=O)c1c(NC(=O)CSc2cn(CC)c3ccccc23)sc2c1CCC2", "Potency": "inconclusive: 29.1 µM [inhibitor, single point]"},
      {"smiles": "C/C(=N\\NC(=O)c1ccc(NS(=O)(=O)c2cccs2)cc1)c1ccccn1", "Potency": "inconclusive: 29.1 µM [inhibitor, partial curve, poor fit]"},
      {"smiles": "COC(=O)/C=C1/S/C(=N/NC(=O)c2ccccc2C)NC1=O", "Potency": "inactive"},
      {"smiles": "COc1ccc(-c2csc(-c3c(N)c(C(=O)c4ccccc4)n4ccccc34)n2)cc1OC", "Potency": "active: 4.11 µM"},
      {"smiles": "OCCN1CCN(c2nc(-c3ccccc3)c3cc(Br)ccc3n2)CC1", "Potency": "inconclusive: 23.1 µM [inhibitor, partial curve, poor fit]"},
      {"smiles": "CSc1cccc(NC(=S)N2CCC(N(C)C3CCCCC3)CC2)c1", "Potency": "inactive"},
      {"smiles": "CCS(=O)(=O)c1cccc(C(=O)Nc2ccc(-c3nc4ccccc4s3)c(O)c2)c1", "Potency": "inconclusive: 18.4 µM [inhibitor, partial curve]"},
      {"smiles": "CC(=O)c1ccc(N2CCN(C(=S)Nc3ccc(Cl)c(Cl)c3)CC2)cc1", "Potency": "inconclusive: 23.1 µM [inhibitor, single point]"},
      {"smiles": "N#CC1=C(N)N(c2ccccc2Sc2ccccc2)C(=O)C1", "Potency": "inactive"},
      {"smiles": "Cc1cc(C)nc(/N=c2/ssnc2Cl)c1", "Potency": "active: 7.31 µM"},
      {"smiles": "O=C1c2nccnc2C(=O)N1c1ccc(C(F)(F)F)cc1", "Potency": "inactive"},
      {"smiles": "CCSc1nnc(NC(=O)C2Cc3ccccc3CN2S(=O)(=O)CC)s1", "note": "(configuration not stated)", "Potency": "inconclusive: 16.4 µM [inhibitor, partial curve, poor fit]"},
      {"smiles": "CN(C)c1nc(N(C)C)nc(N(C)C)n1", "Potency": "inconclusive: 12.8 µM [inhibitor, single point]"},
      {"smiles": "Cc1ccc2nc(-c3ccc(NC(=O)CCS(=O)(=O)c4ccccc4)cc3)sc2c1", "Potency": "inconclusive: 16.4 µM [inhibitor, single point]"},
      {"smiles": "CC1CCN(c2nc3c(cc2C#N)COC(C)(C)C3)CC1", "Potency": "inconclusive: 20.6 µM [inhibitor, single point]"},
      {"smiles": "COc1ccccc1N1CCN(C(=O)CSc2nc3ccccc3nc2Cc2ccc(C)cc2)CC1", "Potency": "active: 16.4 µM"},
      {"smiles": "CC(C)[C@H](O)CC[C@@H](C)C1CC[C@H]2C3CC=C4C[C@@H](O)CC[C@]4(C)C3CC[C@]12C", "note": "(some centres not stated)", "Potency": "inconclusive: 6.51 µM [inhibitor, partial curve]"},
      {"smiles": "Cc1nn(-c2cc(C(F)(F)F)ccn2)c(=O)o1", "Potency": "inactive"},
      {"smiles": "CCC(=O)Nc1nonc1-c1nc2ccccc2n1CCC(C)C", "Potency": "inconclusive: 25.9 µM [inhibitor, single point]"},
      {"smiles": "CCOC(=O)C1CCN(C(=S)Nc2cccc(C)c2)CC1", "Potency": "inactive"},
      {"smiles": "COc1ccc(Br)cc1CN(C)C(=O)c1cc(Cl)c2c(c1)OCCO2", "Potency": "inconclusive: 29.1 µM [inhibitor, single point]"},
      {"smiles": "O=C(NC1CCCCC1)N1CCC(c2nc(-c3ccc(S(=O)(=O)N4CCCC4)cc3)no2)CC1", "Potency": "active: 10.3 µM"},
      {"smiles": "COc1ccc(OC)c(CNC(=O)CSc2c3c(nc4cc(Cl)ccc24)CCCC3)c1", "Potency": "active: 16.4 µM"},
      {"smiles": "CC(=O)c1cccc(Nc2nc(-c3ccccc3)nc3ccccc23)c1", "Potency": "inconclusive: 18.4 µM [inhibitor, single point]"},
      {"smiles": "O=C(O)c1ccc2c3c(ncnc13)-c1ccccc1C2=O", "Potency": "active: 23.1 µM"},
      {"smiles": "COc1cccc(C(=O)CN2C3=NCCCN3c3ccccc32)c1", "Potency": "active: 20.6 µM"},
      {"smiles": "CC(=O)Nc1cccc(NC(=O)C(=O)Nc2ccc3c(c2)N(C(=O)C2CC2)CCC3)c1", "Potency": "inconclusive: 29.1 µM [inhibitor, single point]"},
      {"smiles": "O=C(Nc1cccc(-c2cccc(Cl)c2)c1)C1CCN(Cc2nccs2)CC1", "Potency": "active: 9.2 µM"},
      {"smiles": "COC(=O)C1=C(Nc2ccc(C)cc2)C=C(C)C(C(=O)OC)C1c1cccc(OC)c1", "note": "(configuration not stated)", "Potency": "inconclusive: 25.9 µM [inhibitor, single point]"},
      {"smiles": "CCN(CC)CCNC(=O)CCc1c(C)nc2c(c(C)nn2-c2ccc(C)c(C)c2)c1C", "Potency": "inconclusive: 25.9 µM [inhibitor, single point]"},
      {"smiles": "CC1CCN(S(=O)(=O)c2ccc(C(=O)N3CCCC(C(F)(F)F)C3)cc2)CC1", "note": "(configuration not stated)", "Potency": "active: 18.4 µM"},
      {"smiles": "CC1CCN(C(=O)Cn2c(SCC(=O)Nc3ccc(F)cc3)nc3ccccc32)CC1", "Potency": "inconclusive: 29.1 µM [inhibitor, single point]"},
      {"smiles": "COc1cccc(N(CC(=O)N2CCN(C)CC2)S(=O)(=O)c2ccc(C)cc2)c1", "Potency": "inactive"}
    ]}
  ]
}
